This sample is rich in variants without activity.
B1: TPR 5TU (parent)
chain: GGAUCUUCUCGAUCUAACAAAAAAGACAAAUCUGCCACAAAGCUUGAGAGCAUCUUCGGAUGCAGAGGCGGCAGCCUUCGGUGGCGCGAUAGCGCCAACGUUCUCAACUAUGACACGCAAAACGCGUGCUCCGUUGAAUGGAGUUUAUCAUG

Variants of: B1
Experiment: polymerase ribozyme fitness, log enrichment relative to wild type (log ratio); higher = more active; in vitro selection for triplet polymerase activity
Procedure, shortened: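 For each subunit of a heterodimeric triplet polymerase ribozyme, a mutant library was built by PCR and transcribed, then taken through a single in vitro selection round in triplicate. Selection involved annealing to a biotinylated primer, the partner subunit and triplets, incubation frozen at −7 °C, gel excision of extended constructs, capture on streptavidin beads and RT-PCR. Genotypes were retained after Illumina sequencing of inputs and outputs only with ≥10 input reads and ≥1 read in each output. Fitness is defined as the logarithm of a genotype's enrichment relative to wild-type enrichment, using inverse-variance-weighted averages across replicates, with the logarithm taken to base 2.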
In the case of U127G A147U, the “polymerase ribozyme fitness (log ratio)” value is reported as -3.92.
In the case of A150G, the “polymerase ribozyme fitness (log ratio)” value is reported as -0.734.
For A150U, the “polymerase ribozyme fitness (log ratio)” value was 1.3.
For G126U C149U, the “polymerase ribozyme fitness (log ratio)” value was -1.96.
For G128C U139A, the “polymerase ribozyme fitness (log ratio)” value was at most -4.2.
With U127A G133U A137G the “polymerase ribozyme fitness (log ratio)” value was at most -4.2.
In the case of U135C U151A, the “polymerase ribozyme fitness (log ratio)” value is reported as at most -4.2.
For A137U U145A A147C, the “polymerase ribozyme fitness (log ratio)” value was at most -4.2.
In the case of A122U U146C, the “polymerase ribozyme fitness (log ratio)” value is reported as -0.714.
With G143U G152A the “polymerase ribozyme fitness (log ratio)” value was -3.69.
In the case of A122G A138G C149U, the “polymerase ribozyme fitness (log ratio)” value is reported as -4.
For U135A, the “polymerase ribozyme fitness (log ratio)” value was -0.939.
In the case of U135C, the “polymerase ribozyme fitness (log ratio)” value is reported as -1.38.
For U135G, the “polymerase ribozyme fitness (log ratio)” value was -3.19.
In the case of C132G U134G U148A, the “polymerase ribozyme fitness (log ratio)” value is reported as at most -4.2.
With G128C the “polymerase ribozyme fitness (log ratio)” value was -2.21.
In the case of G128U, the “polymerase ribozyme fitness (log ratio)” value is reported as -2.53.
In the case of G124C G141C, the “polymerase ribozyme fitness (log ratio)” value is reported as -1.16.
In the case of G140A U151G, the “polymerase ribozyme fitness (log ratio)” value is reported as at most -4.2.
For A138U A147U, the “polymerase ribozyme fitness (log ratio)” value was -3.38.
With G143C U145G the “polymerase ribozyme fitness (log ratio)” value was -1.8.
For C123U A142U, the “polymerase ribozyme fitness (log ratio)” value was -1.13.
For G124A G136A, the “polymerase ribozyme fitness (log ratio)” value was -0.107.
In the case of U127A U134C G141C, the “polymerase ribozyme fitness (log ratio)” value is reported as -3.82.
With U127G G141A the “polymerase ribozyme fitness (log ratio)” value was -3.27.
For G124U G136A, the “polymerase ribozyme fitness (log ratio)” value was 0.382.
In the case of G141C U148A, the “polymerase ribozyme fitness (log ratio)” value is reported as at most -4.2.
In the case of G141U G143A, the “polymerase ribozyme fitness (log ratio)” value is reported as -2.79.
In the case of U130G G133A U144C, the “polymerase ribozyme fitness (log ratio)” value is reported as at most -4.2.
For C131G G133U, the “polymerase ribozyme fitness (log ratio)” value was -3.77.
In the case of G124C U135A, the “polymerase ribozyme fitness (log ratio)” value is reported as -1.84.
With A137G G141C the “polymerase ribozyme fitness (log ratio)” value was -2.74.
For A137U U148G, the “polymerase ribozyme fitness (log ratio)” value was at most -4.2.
With U134C U144G the “polymerase ribozyme fitness (log ratio)” value was 0.895.
In the case of C125U U148G, the “polymerase ribozyme fitness (log ratio)” value is reported as at most -4.2.
In the case of G128A C132G U135C, the “polymerase ribozyme fitness (log ratio)” value is reported as at most -4.2.
In the case of C125U A150U, the “polymerase ribozyme fitness (log ratio)” value is reported as -0.413.
In the case of A138U U151C, the “polymerase ribozyme fitness (log ratio)” value is reported as -4.01.
In the case of A122G U139C, the “polymerase ribozyme fitness (log ratio)” value is reported as -4.09.
For G133U U135A U139G U144G A150U, the “polymerase ribozyme fitness (log ratio)” value was -4.1.
In the case of C129G G143A, the “polymerase ribozyme fitness (log ratio)” value is reported as -2.23.
With C125A U146G the “polymerase ribozyme fitness (log ratio)” value was -0.126.
With C125A U146C the “polymerase ribozyme fitness (log ratio)” value was -0.394.
For G124U U135C, the “polymerase ribozyme fitness (log ratio)” value was -2.36.
In the case of A121U C125U, the “polymerase ribozyme fitness (log ratio)” value is reported as -0.154.
With A137U U144G the “polymerase ribozyme fitness (log ratio)” value was -4.2.
With G133A G136U A138G the “polymerase ribozyme fitness (log ratio)” value was at most -4.2.
In the case of U144G U145A, the “polymerase ribozyme fitness (log ratio)” value is reported as 0.571.
In the case of G140U, the “polymerase ribozyme fitness (log ratio)” value is reported as -2.62.
For G140A, the “polymerase ribozyme fitness (log ratio)” value was -2.67.
In the case of G140C, the “polymerase ribozyme fitness (log ratio)” value is reported as -3.16.
In the case of G124C G126U, the “polymerase ribozyme fitness (log ratio)” value is reported as at most -4.2.
For U134A A138C U148A, the “polymerase ribozyme fitness (log ratio)” value was at most -4.2.
For G128A A137G, the “polymerase ribozyme fitness (log ratio)” value was at most -4.2.
With U134A G140A the “polymerase ribozyme fitness (log ratio)” value was -3.58.
For G126A G140A, the “polymerase ribozyme fitness (log ratio)” value was -3.54.
For G140C U144G, the “polymerase ribozyme fitness (log ratio)” value was -3.51.
In the case of A147U U148A, the “polymerase ribozyme fitness (log ratio)” value is reported as -2.81.
In the case of G124A, the “polymerase ribozyme fitness (log ratio)” value is reported as -0.246.
For G124C, the “polymerase ribozyme fitness (log ratio)” value was -0.922.
With A121U G143C the “polymerase ribozyme fitness (log ratio)” value was -1.7.
With A137C A138G the “polymerase ribozyme fitness (log ratio)” value was -3.68.
For A121G U144C, the “polymerase ribozyme fitness (log ratio)” value was -0.191.
In the case of G124A A150G, the “polymerase ribozyme fitness (log ratio)” value is reported as -0.501.
With G124A U148C the “polymerase ribozyme fitness (log ratio)” value was -0.766.
In the case of G140U U148G, the “polymerase ribozyme fitness (log ratio)” value is reported as at most -4.2.
In the case of C132G G133U, the “polymerase ribozyme fitness (log ratio)” value is reported as -2.9.
For U144C U145C, the “polymerase ribozyme fitness (log ratio)” value was -0.39.
For U127A G128U, the “polymerase ribozyme fitness (log ratio)” value was -3.18.
For G136U G143C, the “polymerase ribozyme fitness (log ratio)” value was -3.26.
With U139G U148A the “polymerase ribozyme fitness (log ratio)” value was -2.73.
In the case of U146C U151G, the “polymerase ribozyme fitness (log ratio)” value is reported as at most -4.2.
With C125G U127A the “polymerase ribozyme fitness (log ratio)” value was -3.68.
With G124U U130A A142G the “polymerase ribozyme fitness (log ratio)” value was at most -4.2.
With U130A U144A the “polymerase ribozyme fitness (log ratio)” value was at most -4.2.
With U127G A138G A142C the “polymerase ribozyme fitness (log ratio)” value was -3.48.
For C132U U139G G140A, the “polymerase ribozyme fitness (log ratio)” value was 1.22.
In the case of G128C A150G, the “polymerase ribozyme fitness (log ratio)” value is reported as at most -4.2.
In the case of G141C G143C, the “polymerase ribozyme fitness (log ratio)” value is reported as at most -4.2.
For G126A A142C, the “polymerase ribozyme fitness (log ratio)” value was -3.28.
With U139G C149G the “polymerase ribozyme fitness (log ratio)” value was -3.88.
In the case of G126A C132U, the “polymerase ribozyme fitness (log ratio)” value is reported as -0.105.
For U127A G133U G143C, the “polymerase ribozyme fitness (log ratio)” value was at most -4.2.
With G136U U139A U148A the “polymerase ribozyme fitness (log ratio)” value was at most -4.2.
With U127C U148C the “polymerase ribozyme fitness (log ratio)” value was at most -4.2.
For U130C, the “polymerase ribozyme fitness (log ratio)” value was 1.27.
For U130A, the “polymerase ribozyme fitness (log ratio)” value was -1.66.
For U130G, the “polymerase ribozyme fitness (log ratio)” value was -2.99.
With G136C U151G the “polymerase ribozyme fitness (log ratio)” value was at most -4.2.
For G140U G141C, the “polymerase ribozyme fitness (log ratio)” value was -3.07.
In the case of U127G U144G, the “polymerase ribozyme fitness (log ratio)” value is reported as -1.7.
With G141C A150G the “polymerase ribozyme fitness (log ratio)” value was -3.78.
For G128A G133U, the “polymerase ribozyme fitness (log ratio)” value was -4.
In the case of A138U G141C, the “polymerase ribozyme fitness (log ratio)” value is reported as -3.88.
For C125A U148C, the “polymerase ribozyme fitness (log ratio)” value was -3.48.
In the case of G126A A138C, the “polymerase ribozyme fitness (log ratio)” value is reported as -3.73.
In the case of U139G U145A A150U U151G, the “polymerase ribozyme fitness (log ratio)” value is reported as at most -4.2.
In the case of U127G U134A, the “polymerase ribozyme fitness (log ratio)” value is reported as -4.18.
With U127G U134C the “polymerase ribozyme fitness (log ratio)” value was -3.03.
In the case of C131U U148C, the “polymerase ribozyme fitness (log ratio)” value is reported as -2.73.
In the case of G141A C149G, the “polymerase ribozyme fitness (log ratio)” value is reported as -4.13.
With U145C C149A the “polymerase ribozyme fitness (log ratio)” value was at most -4.2.
In the case of G124C G136A, the “polymerase ribozyme fitness (log ratio)” value is reported as -2.84.
With A122C G140U C149G the “polymerase ribozyme fitness (log ratio)” value was at most -4.2.
